From PubChem BioAssay AID1963576 (National Center for Advancing Translational Sciences (NCATS), 2024)
Hit rate of the full screen: of about 46,000 compounds, about 60 (0.1%) were called active. Another 3% or so got no clear call; they are omitted. Calls follow the shape of the dose curve; as a rule, active = well fitted inhibition curve with a large enough effect; inconclusive = small, poorly fitted or top-dose-only effect; inactive = no such curve, though single readings can be large or run the other way. The list shows a part of the results.

Experiment: Primary qHTS assay for Inhibitors of ovarian cancer metastasis using an organotypic tumor microenvironment (TME) model. Also: nearly all actives have a fitted effect of over 65% in size.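 As to activity change, negative = inhibition: plate controls were DMSO wells for no effect and tomatine positive control wells for full effect.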
Conditions: SKOV3ip1-GFP adhesion/invasion on 3D omental model, fluorescence; series mostly up to 45.8 µM; activity change, negative = inhibition: at the top concentration
How it was run: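 Primary human omental fibroblast/mesothelial 3D culture pre-formed 48 h. SKOV3ip1-GFP cells added with compounds (0.36-46 umol/L), incubated 2 h RT/16 h 37 C, fixed; GFP cells quantified at 488/509 nm.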

| SMILES | activity change, negative = inhibition | outcome |
| --- | --- | --- |
| CCOc1cc(C2Sc3ccccc3NC3=C2C(=O)c2ccccc23)ccc1O (stereo not given) | inactive: -21.4% | – |
| CCOC(=O)c1ccc(NC(=O)CC2C(=O)N(c3ccc(F)cc3)C(=O)N2Cc2ccc(C)cc2)cc1 (stereo not given) | inactive: 2.82% | – |
| Cc1nc(-n2nc(C)c(CCC(C)C)c2C)sc1C(=O)Nc1ccc(Br)cc1 | inactive: -2.54% | – |
| CC(=O)c1ccc(NC(=O)CSc2nc(C3CCCC3)nc3c2c(=O)n(C)c(=O)n3C)cc1 | inactive: 15.8% | – |
| CC(=O)c1ccc(NC(=O)CCc2nc(-c3ccc(C)cc3)no2)cc1 | – | inactive |
| COc1cccc(-c2nc3c(c(SCC(=O)Nc4cc(C)ccc4C)n2)Cc2c(CO)cnc(C)c2O3)c1 | – | inactive |
| CCCCOc1ccccc1C(=O)Nc1onc2c1CCCC2 | inactive: -20.5% | – |
| CC1CCN(c2oc(-c3ccc(COc4ccc(Cl)cc4)o3)nc2C#N)CC1 | inactive: -11.1% | – |
| CSc1ccc(CNC(=O)CCc2c(C)nn(-c3ccc(N4CCCC4)nn3)c2C)cc1 | – | inactive |
| COc1ccc(CNC(=O)C2=C(C)C(=O)OC23CCN(C(C)=O)CC3)cc1 | inactive: 9.52% | – |
| COc1ccc(CCNC(=O)CCCn2c(SCC(N)=O)nc3cc4c(cc3c2=O)OCO4)cc1OC | – | inactive |
| CCOC(=O)N1CCc2c(sc3c2c(=O)n(Cc2ccccc2)c(=O)n3Cc2ccc(C)cc2)C1 | – | inactive |
| CC(C)OC(=O)/C(C#N)=C/c1ccc(-c2ccc(Cl)c(Cl)c2)o1 | – | inactive |
| Cc1cc(C)c2nc(NC(=O)c3ccc(S(=O)(=O)N4CCC(C)CC4)cc3)sc2c1 | – | inactive |
| CCOc1ccccc1CNC(=O)c1ccc(Cn2c(SCc3ccccc3)nc3cccnc32)cc1 | inactive: 1.37% | – |
| Fc1ccc(N2CCN(Cc3cccn3-c3nnc(N4CCN(C5CCCCC5)CC4)s3)CC2)cc1 | inactive: -11.9% | – |
| CC(C)[C@H](O)C(=O)N[C@@H](C)C(=O)N[C@@H]1C(=O)N(C)CCc2ccccc21 | inactive: 4.02% | – |
| CCOC(=O)c1cc(-c2ccccc2)n(-c2cccc(C(=O)N(C)c3ccc(C)cc3)c2)c1C | – | inactive |
| CCc1ccccc1NC(=O)c1cc2c(Cl)nc3ccccc3c2s1 | – | inactive |
| Cc1ccc(NC(=O)C2CCCN(c3cnccn3)C2)c(C)c1 (stereo not given) | inactive: -8.07% | – |

| SMILES | activity change, negative = inhibition | outcome |
| --- | --- | --- |
| CCc1ccc(-c2nc(CSCC(=O)N3CCN(c4ccc(F)cc4)CC3)c(C)o2)cc1 | inactive: -0.927% | – |
| CC(=O)Nc1ccc(Nc2ncnc3c2c(-c2ccccc2)cn3-c2ccc(C)c(Cl)c2)cc1 | inactive: -30.5% | – |
| CCOC(=O)c1c(C)[nH]c(C)c1S(=O)(=O)N1CCC(C(=O)Nc2ccc(C)c(Cl)c2)CC1 | – | inactive |
| Cc1ccccc1Cn1c(SCc2ccc(C(=O)NC3CCCC3)cc2)nc2ccncc21 | inactive: 10.5% | – |
| CCCSc1nc2sc3c(c2c(=O)n1-c1cccc(Br)c1)CC(C)(C)OC3 | – | inactive |
| CCCOc1cccc(C(=O)Nc2ccc(-c3cc4ccccc4oc3=O)c(C)c2)c1 | inactive: -2.43% | – |
| CCOc1ccccc1NC(=O)c1cc2c(=O)n(Cc3cccnc3)ccc2nc1C | inactive: 10.9% | – |
| CCOC(=O)c1ccc(NC2=CC(c3ccc(F)cc3)N(c3ccc(C(=O)OCC)cc3)C2=O)cc1 (stereo not given) | inactive: 17.7% | – |
| Cc1c(NC(=O)c2ccc(Br)o2)cccc1-c1nc2ccccc2o1 | – | inactive |
| Cc1cccc(C)c1NC(=O)CCS(=O)(=O)c1cccc2nonc12 | – | inactive |
| COc1cc(C2NC(=O)c3c(sc4c3CCN(C)C4)N2)ccc1OC(=O)c1ccccc1 (stereo not given) | inactive: 0.887% | – |
| COc1ccc(NC(=O)N2CCN3CCCCC3C2)cc1OC (stereo not given) | inactive: 0.358% | – |
| COc1ccccc1CNC(=O)CCNS(=O)(=O)c1cccc2nsnc12 | – | inactive |
| COc1cccc(NC(=O)N2CCN(C(=O)c3nsc4ccccc34)CC2)c1 | inactive: -8.17% | – |
| Cc1nc2c(c(C)nn2-c2ccccc2)c(C)c1CCC(=O)NCCc1ccc(Cl)cc1 | inactive: 6.32% | – |
| COc1ccccc1N=c1scc(-c2ccc(S(=O)(=O)N3CCCC3)cc2)n1C | inactive: 7.29% | – |
| COc1cc(-c2cc(OC)c3c(C)oc(C)c3c(=O)c2)ccc1OC(=O)c1cccc(Cl)c1 | inactive: -22.9% | – |
| COc1ccc(NC(=O)CCCN2C(=O)COc3ccc(C)cc32)cc1OC | inactive: -5.12% | – |
| CC(C)c1ccc(OCc2cc(=O)n3c(-c4ccccc4)csc3n2)cc1 | – | inactive |
| Cc1ccc(S(=O)(=O)c2nnn3c2nc(NCc2ccccc2Cl)c2sccc23)cc1 | – | inactive |

| SMILES | activity change, negative = inhibition | outcome |
| --- | --- | --- |
| CCOC(=O)c1ccc(NC(=O)c2nn(C)c3c2COc2ccccc2-3)cc1 | inactive: -0.151% | – |
| COCCCNC(=O)c1ccc2c(c1)NC(=O)C(C(C)C)N2 (stereo not given) | inactive: -6.01% | – |
| CC(C)(C)OC(=O)N1CCC(c2c(C(=O)N3CCN(C(=O)c4ccco4)CC3)cnn2-c2ccccc2Cl)CC1 | inactive: -2.99% | – |
| O=C(Cn1c(=O)n(-c2ccc(Cl)cc2)c(=O)c2c3c(sc21)CCC3)c1ccccc1 | inactive: 2.76% | – |
| CCOC(=O)c1c(NC(=O)CSc2cn(CCNC(=O)c3ccccc3F)c3ccccc23)sc2c1CCCC2 | inactive: 13% | – |
| Cc1ccccc1C(=O)c1cccn1CC(=O)NCc1cccc(Cl)c1 | inactive: -1.12% | – |
| COc1ccc(CCN2C(=O)CN(C3CCC(C)CC3)C(=O)C2c2ccc(OC(C)C)c(OC)c2)cc1OC (stereo not given) | – | inactive |
| CC(C)(C)NC(=O)c1oc2ccccc2c1NC(=O)c1ccc(F)cc1 | inactive: 0.253% | – |
| CCc1ccc(S(=O)(=O)c2nnn3c2nc(NCCNC(C)=O)c2cc(Cl)ccc23)cc1 | inactive: -1.9% | – |
| COCCN(CCOC)c1ncnc2c1c(-c1ccccc1)cn2-c1ccc(C)c(Cl)c1 | inactive: 47.8% | – |
| CCCCNC(=O)C(CC)Sc1nc2ccccc2c(=O)n1CCc1ccc(OC)c(OC)c1 (stereo not given) | inactive: -5.74% | – |
| Cc1ccc(Cn2cc(CCC(=O)NCc3ccc(OC(C)C)cc3)c3ccccc32)cc1 | inactive: -3.56% | – |
| CCc1nn(CCCC(=O)NC(C)c2ccccc2)c(=O)c2cc3occc3n12 (stereo not given) | – | inactive |
| Cn1c(SCc2ccccc2F)nc2c([nH]c3ccccc32)c1=O | inactive: 0.842% | – |
| COc1ccccc1C(=O)Nc1ccc(OCc2cc(=O)n3cc(C)sc3n2)cc1 | inactive: 2.37% | – |
| COc1ccc(C)cc1NC(=O)c1ccc2c(c1)nnn2C1CCCC1 | inactive: 80.3% | – |
| CCn1c2ccccc2c2cc(CN3CCN(Cc4ccccc4C)CC3)ccc21 | – | inactive |
| CCc1ccc(NC(=O)Cn2c(-c3cncs3)nc3ccccc32)cc1 | inactive: 12.7% | – |
| Cc1ccc(NC(=O)Cn2c(=O)n(Cc3ccc4c(c3)OCO4)c(=O)c3ccc(C(=O)NC4CCCCC4)cc32)c(C)c1 | inactive: 36.2% | – |
| O=C1c2oc3ccccc3c(=O)c2C(c2cccc(Cl)c2)N1c1ccccn1 (stereo not given) | – | inactive |
